From the supplement of paper PMC10037445
Over roughly 2,900 compounds, “IRF Lucia reporter activity, fold change vs agonist alone” has its median near 0.9; the highest 2% begin near 2.8. The list shows a part of the results.

Experiments:
RAW-Dual [1] = test: IRF Lucia reporter activity, fold change vs agonist alone; cytotoxicity flag (confluency mask): not cytotoxic; higher = enhanced IRF activity
Outline: (§1)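 RAW-Dual macrophages (50,000 cells/well in DMEM, 384-well plates) received 50 nL of library stock by pin tool, then a PRR agonist 1 h later, and were kept at 37 °C, 5% CO2. After 20 hours, supernatant was read for IRF by QuantiLuc luminescence and for NF-κB by QuantiBlue absorbance at 620 nm. Reporter activity is fold change over agonist-alone wells. Cytotoxic wells had IncuCyte confluency below 70% of agonist controls in both mask sets.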

RAW-Dual [2] = test: IRF Lucia reporter activity, fold change vs agonist alone; higher = enhanced IRF activity; settings: agonist: MPLA (TLR4) […]
Outline: as §1

RAW-Dual [3] = test: IRF Lucia reporter activity, fold change vs agonist alone; cytotoxicity flag (confluency mask): cytotoxic (confluency <70% of control); higher = enhanced IRF activity
Outline: as §1

[4] = agonist: 3'3'-cGAMP (STING) 10 ug/mL
[5] = library stock concentration (final ~1000-fold dilution): 10 mM, cytotoxicity flag (confluency mask): not cytotoxic
[6] = library stock concentration (final ~1000-fold dilution): 10 mM, cytotoxicity flag (confluency mask): cytotoxic (confluency <70% of control)

SMILES: O=C(Nc1cccc(Br)c1)c1cccc(S(=O)(=O)N2CCCCCC2)c1 (library stock concentration (final ~1000-fold dilution): 10 mM)
- IRF Lucia reporter activity (RAW-Dual [1]; [4]): 0.151
- IRF Lucia reporter activity (RAW-Dual [1]; agonist: LPS (TLR4) 0.1 ug/mL): 1.27

SMILES: O=C(Nc1cccc(Br)c1)c1cccc(S(=O)(=O)N2CCCCCC2)c1
- IRF Lucia reporter activity (RAW-Dual [2]; [5]): 1.09

SMILES: O=C(O)Cn1nnc(-c2cc(N3CCC(Oc4cc(F)ccc4Br)CC3)no2)n1
- IRF Lucia reporter activity (RAW-Dual [2]; [5]): 0.911

SMILES: O=C(O)Cn1nnc(-c2cc(N3CCC(Oc4cc(F)ccc4Br)CC3)no2)n1 (library stock concentration (final ~1000-fold dilution): 10 mM)
- IRF Lucia reporter activity (RAW-Dual [1]; [4]): 0.908
- IRF Lucia reporter activity (RAW-Dual [1]; agonist: LPS (TLR4) 0.1 ug/mL): 1.05

SMILES: CNCCCC1c2ccccc2C=Cc2ccccc21.Cl (library stock concentration (final ~1000-fold dilution): 10 mM)
- IRF Lucia reporter activity (RAW-Dual [3]; [4]): 0.217
- IRF Lucia reporter activity (RAW-Dual [3]; agonist: LPS (TLR4) 0.1 ug/mL): 1.38

SMILES: CCCc1nn(C)c2c(=O)[nH]c(-c3cc(S(=O)(=O)N4CCN(C)CC4)ccc3OCC)nc12
- IRF Lucia reporter activity (RAW-Dual [2]; library stock concentration (final ~1000-fold dilution): 10 mM water, cytotoxicity flag (confluency mask): not cytotoxic): 1.11

SMILES: CCCc1nn(C)c2c(=O)[nH]c(-c3cc(S(=O)(=O)N4CCN(C)CC4)ccc3OCC)nc12 (library stock concentration (final ~1000-fold dilution): 10 mM water)
- IRF Lucia reporter activity (RAW-Dual [1]; [4]): 1.12
- IRF Lucia reporter activity (RAW-Dual [1]; agonist: LPS (TLR4) 0.1 ug/mL): 0.887

SMILES: CC(OC1OCCN(Cc2nn(P(=O)(O)O)c(=O)[nH]2)C1c1ccc(F)cc1)c1cc(C(F)(F)F)cc(C(F)(F)F)c1.CNCC(O)C(O)C(O)C(O)CO.CNCC(O)C(O)C(O)C(O)CO (stereo not drawn)
- IRF Lucia reporter activity (RAW-Dual [2]; [5]): 0.972

SMILES: CC(OC1OCCN(Cc2nn(P(=O)(O)O)c(=O)[nH]2)C1c1ccc(F)cc1)c1cc(C(F)(F)F)cc(C(F)(F)F)c1.CNCC(O)C(O)C(O)C(O)CO.CNCC(O)C(O)C(O)C(O)CO (stereo not drawn) (library stock concentration (final ~1000-fold dilution): 10 mM)
- IRF Lucia reporter activity (RAW-Dual [1]; [4]): 1.41
- IRF Lucia reporter activity (RAW-Dual [1]; agonist: LPS (TLR4) 0.1 ug/mL): 0.997

SMILES: O=C(O)[C@H](O)Cc1ccc(O)c(O)c1 (library stock concentration (final ~1000-fold dilution): 10 mM water)
- IRF Lucia reporter activity (RAW-Dual [1]; [4]): 1.69
- IRF Lucia reporter activity (RAW-Dual [1]; agonist: LPS (TLR4) 0.1 ug/mL): 0.93

SMILES: CCCN(CCC)CCc1cccc2c1CC(=O)N2.Cl
- IRF Lucia reporter activity (RAW-Dual [2]; [5]): 1.04

SMILES: CCCN(CCC)CCc1cccc2c1CC(=O)N2.Cl (library stock concentration (final ~1000-fold dilution): 10 mM)
- IRF Lucia reporter activity (RAW-Dual [1]; [4]): 1.05
- IRF Lucia reporter activity (RAW-Dual [1]; agonist: LPS (TLR4) 0.1 ug/mL): 0.939

SMILES: Cn1cc(C2=C(c3cccc(N)c3)C(=O)NC2=O)c2ccccc21 (library stock concentration (final ~1000-fold dilution): 10 mM)
- IRF Lucia reporter activity (RAW-Dual [1]; [4]): 0.134
- IRF Lucia reporter activity (RAW-Dual [1]; agonist: LPS (TLR4) 0.1 ug/mL): 0.0467

SMILES: [O-][n+]1cccc(-c2nc3c(Cl)cccc3cc2C(Nc2ncnc3cccnc23)C(F)(F)F)c1 (stereo not drawn) (library stock concentration (final ~1000-fold dilution): 10 mM)
- IRF Lucia reporter activity (RAW-Dual [1]; [4]): 0.374
- IRF Lucia reporter activity (RAW-Dual [1]; agonist: LPS (TLR4) 0.1 ug/mL): 1.75

SMILES: O=C(CSc1nc2c(c(=O)n1-c1ccccc1)SCC2)Nc1ccc(-c2ccccc2)cn1
- IRF Lucia reporter activity (RAW-Dual [2]; [5]): 1.02

SMILES: O=C(CSc1nc2c(c(=O)n1-c1ccccc1)SCC2)Nc1ccc(-c2ccccc2)cn1 (library stock concentration (final ~1000-fold dilution): 10 mM)
- IRF Lucia reporter activity (RAW-Dual [1]; [4]): 1.21
- IRF Lucia reporter activity (RAW-Dual [1]; agonist: LPS (TLR4) 0.1 ug/mL): 0.971

SMILES: Cc1cc(C=Cc2ccc3cc(N(C)C)ccc3[n+]2C)c(C)n1-c1ccccc1 (library stock concentration (final ~1000-fold dilution): 10 mM)
- IRF Lucia reporter activity (RAW-Dual [3]; [4]): 0.0366
- IRF Lucia reporter activity (RAW-Dual [3]; agonist: LPS (TLR4) 0.1 ug/mL): 0.0247

SMILES: Cc1cc(C=Cc2ccc3cc(N(C)C)ccc3[n+]2C)c(C)n1-c1ccccc1
- IRF Lucia reporter activity (RAW-Dual [2]; [6]): 0.168

SMILES: Cn1ncc(Cl)c1-c1cc(C(=O)NC(CN)Cc2ccc(F)c(F)c2)oc1Cl (stereo not drawn)
- IRF Lucia reporter activity (RAW-Dual [2]; [5]): 0.312

SMILES: Cn1ncc(Cl)c1-c1cc(C(=O)NC(CN)Cc2ccc(F)c(F)c2)oc1Cl (stereo not drawn) (library stock concentration (final ~1000-fold dilution): 10 mM)
- IRF Lucia reporter activity (RAW-Dual [1]; [4]): 0.131
- IRF Lucia reporter activity (RAW-Dual [1]; agonist: LPS (TLR4) 0.1 ug/mL): 0.379

SMILES: CCC(C)C(NC(=O)C(CCCCN)NC(=O)C(CCC(=O)O)NN)C(=O)NC(CCC(N)=O)C(=O)NC(C)C(=O)NC(CCCCN)C(=O)N1CCCC1C(=O)NC(C)C(=O)C(=O)C(CC(C)C)NC(=O)C(CCC(N)=O)NC(=O)C(NC(=O)C(NC(=O)C(CCCNC(=N)N)NC(=O)C(Cc1ccccc1)NC(=O)C(CCCCNNC(Cc1ccccc1)C(=O)NC(CO)C(=O)NC(CCC(=O)O)C(=O)NC(CO)C(=O)NC(C(=O)NC(CC(N)=O)C(=O)NC(C=O)CO)C(C)O)NC(=O)C(Cc1ccccc1)NC(=O)C(CO)NC(=O)C(CCC(=O)O)NC(=O)C(CO)NC(=O)C(NC(=O)C(CC(N)=O)NC(=O)C(N)CO)C(C)O)C(C)C)C(C)O (stereo not drawn) (library stock concentration (final ~1000-fold dilution): 10 mM water)
- IRF Lucia reporter activity (RAW-Dual [1]; [4]): 1.21
- IRF Lucia reporter activity (RAW-Dual [1]; agonist: LPS (TLR4) 0.1 ug/mL): 0.916

SMILES: CN1C(=N)NC(C)(c2cc(NC(=O)c3ccc(F)cn3)ccc2F)CS1(=O)=O (stereo not drawn) (library stock concentration (final ~1000-fold dilution): 10 mM)
- IRF Lucia reporter activity (RAW-Dual [1]; [4]): 1.2
- IRF Lucia reporter activity (RAW-Dual [1]; agonist: LPS (TLR4) 0.1 ug/mL): 1.21

SMILES: CC(C)(O)CC(=O)NCCn1ccc2ncnc(Nc3ccc(Oc4cccc(C(F)(F)F)c4)c(Cl)c3)c21 (library stock concentration (final ~1000-fold dilution): 10 mM)
- IRF Lucia reporter activity (RAW-Dual [3]; [4]): 0.702
- IRF Lucia reporter activity (RAW-Dual [3]; agonist: LPS (TLR4) 0.1 ug/mL): 0.545

SMILES: CC(C)(O)CC(=O)NCCn1ccc2ncnc(Nc3ccc(Oc4cccc(C(F)(F)F)c4)c(Cl)c3)c21
- IRF Lucia reporter activity (RAW-Dual [2]; [6]): 0.596

SMILES: CCC1(C)CC(=O)NC1=O (stereo not drawn)
- IRF Lucia reporter activity (RAW-Dual [2]; [5]): 0.957

SMILES: CCC1(C)CC(=O)NC1=O (stereo not drawn) (library stock concentration (final ~1000-fold dilution): 10 mM)
- IRF Lucia reporter activity (RAW-Dual [1]; [4]): 1
- IRF Lucia reporter activity (RAW-Dual [1]; agonist: LPS (TLR4) 0.1 ug/mL): 0.548

SMILES: Cc1c(C(=O)N2CCOc3ccc(-c4ccc(N)nc4)cc3C2)ccc(S(C)(=O)=O)c1F
- IRF Lucia reporter activity (RAW-Dual [2]; library stock concentration (final ~1000-fold dilution): 2 mM, cytotoxicity flag (confluency mask): not cytotoxic): 1.18

SMILES: Cc1c(C(=O)N2CCOc3ccc(-c4ccc(N)nc4)cc3C2)ccc(S(C)(=O)=O)c1F (library stock concentration (final ~1000-fold dilution): 2 mM)
- IRF Lucia reporter activity (RAW-Dual [1]; [4]): 0.869
- IRF Lucia reporter activity (RAW-Dual [1]; agonist: LPS (TLR4) 0.1 ug/mL): 0.985

SMILES: CC(C)c1cc(C(C)C)c(CC(=O)NS(=O)(=O)Oc2c(C(C)C)cccc2C(C)C)c(C(C)C)c1 (library stock concentration (final ~1000-fold dilution): 10 mM)
- IRF Lucia reporter activity (RAW-Dual [1]; [4]): 1.01
- IRF Lucia reporter activity (RAW-Dual [1]; agonist: LPS (TLR4) 0.1 ug/mL): 0.653

SMILES: CC(C)c1cc(C(C)C)c(CC(=O)NS(=O)(=O)Oc2c(C(C)C)cccc2C(C)C)c(C(C)C)c1
- IRF Lucia reporter activity (RAW-Dual [2]; [5]): 1.09
